Test results published in PubChem BioAssay AID493208 (National Center for Advancing Translational Sciences (NCATS), 2011).
Out of some 44,000 compounds screened, about 340 (0.77%) were called active. Not shown: some 5% with an inconclusive outcome. Calls follow the shape of the dose curve; as a rule, active = well fitted inhibition curve with a large enough effect; inconclusive = small, poorly fitted or top-dose-only effect; inactive = flat fitted curve, though single readings scatter. The list shows a part of the results.

experiment: Acumen qHTS Assay for Inhibitors of the mTORC1 Signaling Pathway in MEF (Tsc2-/-, p53-/-) Cells: Sytravon; conditions: phospho-rpS6 immunofluorescence/PI, 24 h; series mostly up to 38.3 µM; activity change, negative = inhibition: at the top concentration;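 also: plate controls were DMSO for no effect and rapamycin for full effect; nearly all actives have a fitted effect of over 50% in size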
Outline: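 Readout is phospho-S6 Alexa 488 signal normalized to PI per well, reported as % active cells with thresholds set from rapamycin (7.5 nM) and DMSO controls. Cells: Tsc2-/-, p53-/- MEFs, 24 hrs compound at 37 C; PI cell number serves as viability.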

Activity change, negative = inhibition, inactive:
CCOc1ccc(CCNC(=O)CCc2c(C)nc3c(-c4ccccc4)c(C)nn3c2C)cc1OCC -6.57%
CCOc1ccc(C2=NC(c3ccc(OC)cc3)=Nc3ccc(Cl)cc3N2)cc1 5.06%
C=CCC(CC=C)(CNC(=O)C(=O)Nc1cc(C)ccc1OC)c1ccc(OC)c(OC)c1 4.35%
O=C(Cn1cc(S(=O)(=O)N2CCCC2)c(S(=O)(=O)N2CCCC2)c1)Nc1cccc(F)c1 -7.12%
COc1ccccc1CNC(=O)CN1C(=O)COc2ccc(S(=O)(=O)N3CCC(C)CC3)cc21 -1.14%
CCc1ccc(NC(=O)C(C)n2nnc3sc(-c4ccccc4)cc3c2=O)cc1 (centres undefined) -3.98%
COc1ccc(NC(=O)/C(C#N)=C/c2cc(C)n(-c3ccc(F)cc3)c2C)cc1 0.913%
CCOC(=O)c1cccc(NC(=O)C2CCCN(S(=O)(=O)c3ccc4c(c3)oc(=O)n4C)C2)c1 (centres undefined) -8.27%
CC(C)C(=O)N(Cc1ccccc1)S(=O)(=O)c1ccc2c(c1)oc(=O)n2C -8.95%
Cc1nc2nc(SCC(=O)O)nn2c(C)c1Cc1c(F)cccc1Cl 14.2%
Cc1ccc(CN(C(=O)COc2ccc(Cl)c(C)c2)C2CCS(=O)(=O)C2)o1 (centres undefined) 2.52%
Cc1csc2nc(COC(=O)c3ccccc3NC(=O)COc3ccccc3F)cc(=O)n12 0%
Cc1ccc(Cl)cc1NC(=O)Cn1c(=O)n(CCCS(=O)(=O)C2CCCCC2)c(=O)c2ccccc21 -12.2%
COc1ccc(-c2c3c(=O)n(C)c(=O)n(C)c3c3c(-c4cccc(C)c4)nc4ccccc4n23)cc1 -3.85%
COc1ccc(S(=O)(=O)NCCCO)cc1-c1nnc2c3ccccc3c(C)nn12 -11.4%
COc1ccc2cc3cc(C(=O)N4CCN(c5cccc(Cl)c5)CC4)sc3nc2c1 1.79%
COc1ccc(NS(=O)(=O)c2ccc3c(c2)CCN3C(=O)CCC(=O)O)cc1Cl 1.67%
CCc1ccc(-n2c(=O)c3sc4ccccc4c3n(CC(=O)NC3CCCCC3)c2=O)cc1 0.223%
CC(C)CCNC(=O)CSc1nc2ccccc2nc1Cc1ccccc1 -15.9%
CCOC(=O)c1ccc2c(c1)N(C(CC)C(=O)Nc1ccccc1OC)C(=O)c1ccccc1S2 (centres undefined) 0%
Cc1ccc(NC(=O)Cn2nc(-c3ccncc3)ccc2=O)cc1Cl -8.13%
Cc1cc(NC(=O)CCS(=O)(=O)c2cc(Br)cc3c2N(C(=O)C2CC2)CC3)ccc1Br 2.95%
COc1cc2c(cc1OC)C(COc1ccc3c(C)cc(=O)oc3c1)N(C(=O)C(C)C)CC2 (centres undefined) -21.7%
CCOC(=O)c1nc(Nc2ccc(C(C)=O)cc2)c2ccccc2n1 -15.1%
O=C(Nc1c(C(=O)Nc2ccc(F)cc2)oc2ccccc12)c1cc2ccccc2o1 2.35%
COc1ccc(Cn2c(=O)c3cccnc3n(CC(=O)Nc3ccc(C)c(F)c3)c2=O)cc1 -6.85%
Cc1cc(Oc2c(C(F)(F)F)oc3c(CN4CCC(C)CC4)c(O)ccc3c2=O)cc(C)c1Cl -1.39%
O=C(Cn1c(=O)oc2cc(S(=O)(=O)N3CCCCCC3)ccc21)NCc1ccccc1Cl -16.8%
Cc1cccc(-n2ccnc2SCC(=O)Nc2ccc(F)cc2F)c1C -6.42%
Cc1ccc(C)c(CNC(=O)c2ccc3c(c2)nc2n3CCCCC2)c1 -14.2%
C[C@H](NC(=O)OC(C)(C)C)c1nnc(SCc2c(F)cccc2Cl)o1 -17.9%
COCCCNC(=O)c1cc2c(=O)oc3ccc(C)cc3c2s1 -5.85%
O=C(c1ccc(CSc2nc3ccncc3n2Cc2ccc(F)cc2)cc1)N1CCCCCC1 0.702%
Cc1ccc(-c2nc3c4ccccc4[nH]c(=O)n3n2)cc1 -4.01%
CCc1nc2ccc(C(=O)N3CCN(c4cccc(C)c4C)CC3)cc2nc1CC 3.9%
O=C1CC(c2cccc(O)c2)c2c(nc(SCc3ccccc3F)[nH]c2=O)N1 (centres undefined) 1.13%
CCOc1ccc(C(=O)N(Cc2sccc2C)C2CCS(=O)(=O)C2)cc1 (centres undefined) -1.31%
CCOc1ccc(-c2cc(OC(=O)c3ccc(OC)cc3)c3c(C)oc(C)c3c(=O)c2)cc1 -2.64%
CCc1ccccc1NC(=O)Nc1ccc2c(c1)N(CC)C(=O)c1ccccc1S2 -7.11%
CCOc1ccccc1CNC(=O)c1cc2n(n1)CCCN(Cc1ccc(C)cc1)C2=O 0%
CCOc1ccc(NC(=O)CSc2nc(C)c(C(=O)Nc3ccccc3)c(-c3ccc(Cl)cc3)c2C#N)cc1 15.5%
CCc1cccc(-n2c(C)nc3c(cnn3-c3ccc(C)c(C)c3)c2=O)c1 -6.39%
O=C(Nc1ccc(OC(F)(F)F)cc1)c1nc2ccccc2nc1N1CCCCC1 -4.66%
COc1cccc(NC(=O)CSc2nc3cc(OC)c(OC)cc3c3nc(-c4ccccc4)nn23)c1 1.1%
CCn1c2ccccc2c2cc(CN3CCN(Cc4ccccc4Cl)CC3)ccc21 4.29%
COc1cc(OC)c(NC2(c3ccccc3)C(=O)c3ccccc3C2=O)cc1Cl 2.12%
CCOC(=O)c1ccc(NC(=O)/C(C#N)=C/c2ccc(OC)cc2)cc1 -5.6%
CCc1ccc(-n2c(=O)c3c(C)c(C)sc3n(CC(=O)NCc3ccc(C)cc3)c2=O)cc1 1.47%
CCCCc1nn2c(=O)cc(COC(=O)c3cccc(NC(=O)CCc4ccccc4)c3)nc2s1 1.16%
CCCN(CCC)C(=O)Cn1c(=O)n(-c2ccccc2)c(=O)c2c3c(sc21)CCCC3 0.889%
N#C/C(=C/c1ccc(Cl)cc1)c1nc(-c2ccc(Br)cc2)cs1 2.49%
O=S(=O)(NCc1nc2cccnc2n1Cc1ccccc1)c1ccc2c(c1)CCCC2 -2.13%
Cc1ccc(CSc2oc(-c3ccco3)nc2S(=O)(=O)c2ccc(C)cc2)cc1 -24%
COc1cc(/C=C(\C#N)c2nc3ccccc3[nH]2)cc(Cl)c1OCc1ccccc1Cl -29.7%
Cc1ccc(NS(=O)(=O)c2ccc3[nH]c(=O)oc3c2)c(C)c1 0.654%
COc1cc2nc(SCC(=O)Nc3c(C)cc(C)cc3C)n3nc(CCn4c(C)nc5ccccc54)nc3c2cc1OC 0.865%
Cc1c(NC(=O)Nc2ccc(Br)cc2F)sc2nc3n(c(=O)c12)CCC(C)CC3 (centres undefined) -0.463%
CCOC(=O)c1c(S(=O)(=O)NCC(=O)N2CCN(c3ccccc3)CC2)c(C)n(C)c1C -5.16%
Fc1ccc(C(NCCc2ccc(Cl)cc2)c2nnc(-c3ccccc3)o2)c(Cl)c1 (centres undefined) -3.45%
COc1ccccc1CNC(=O)CCn1c(=O)c2ccccc2n(CC(=O)Nc2ccc(C)cc2Cl)c1=O -3.85%
CCc1cccc(C)c1NC(=O)c1cc(S(=O)(=O)NCc2ccccc2Cl)ccc1F -0.201%
CC(=O)NCC(c1ccc2c(c1)OCO2)N1CCN(c2ccccc2)CC1 (centres undefined) -0.87%
CCCn1c2ccccc2c2cnn(CC(=O)N(C)c3ccccc3CC)c(=O)c21 -1.48%
Cn1c(=O)c(=O)n(C)c2cc(NC(=O)c3cccc(F)c3)c(Cl)cc21 0.643%
CCCSCCCNC(=O)C1CCCN(c2nn3cc(-c4ccc(OC)cc4)nc3s2)C1 (centres undefined) -1.96%
CCOc1ccccc1CNC(=O)CCCn1ncn2c(cc3occc32)c1=O 0.4%
CCOc1ccc(C(=O)c2cn(CC(=O)Nc3ccc(F)cc3)c3cc4c(cc3c2=O)OCO4)cc1 -18.2%
COc1ccc(N(CC(=O)NCc2ccccc2Cl)S(=O)(=O)c2c(C)nn(C)c2C)cc1 -20.8%
COc1ccc(CCNC(=O)Cn2c(=O)nc(-c3ccccc3)c3ccccc32)cc1OC 8.83%
Cc1ccc2cccc(NC(=O)COc3cc(C)c(Cl)c(C)c3)c2n1 -8.97%
CN(C)CCCN(C(=O)c1ccc(Br)s1)c1nc2ccc(F)cc2s1 -3.85%
CCCCN(CC)CCNC(=O)CN1C(=O)COc2ccc(S(=O)(=O)N3CCCC3)cc21 0.91%
Cc1ccc(CCNC(=O)CCn2nc(-c3ccccc3)ccc2=O)cc1 5.36%
Cc1ccccc1NC(=O)N1CCc2c(sc3c2CCCC3)C1c1ccccc1 (centres undefined) 0%
COc1ccc(NC(=O)c2ccc3nc(CCc4ccccc4)oc3c2)c(OC)c1 2.91%
CCOc1ccc(C(=O)Nc2c(C(=O)c3ccc(OC)cc3)oc3ccccc23)cc1 -2.49%
O=C(NCCc1ccccc1)c1ccc(Cn2c(SCc3cccc(F)c3)nc3cccnc32)cc1 -22.8%
CCn1c(NCc2ccc(OC)cc2)nc2ccccc21 -10.2%
CCS(=O)(=O)c1ncc(N(Cc2ccccc2)Cc2ccco2)c(C(=O)Nc2ccc(C)c(C)c2)n1 -0.379%
COCCNC(=O)CCc1c(C)nc2c(-c3ccc(F)cc3)c(C)nn2c1C 0.705%
COc1cc(C(CC(=O)Nc2ccc(F)cc2F)N2Cc3ccccc3C2=O)cc(OC)c1OC (centres undefined) 0.0076%
COc1ccc(CCNC(=O)CCCCn2c(=O)c3ccccc3n(Cc3ccccc3C)c2=O)cc1OC -6.1%
CCCCCn1cc2c(c1-c1ccc(Br)cc1)c(=O)n(C)c(=O)n2C -1.7%
CCC(=O)Nc1ccc(CC)cc1-c1nc2ccccc2n(CC(=O)Nc2cccc(Cl)c2)c1=O -2.02%
COc1cccc(NC(=O)Cn2nnc(-c3nc(-c4ccccc4)no3)c2N)c1 -27.1%
O=C(Cn1c(=O)oc2cc(Cl)ccc21)Nc1cccc(C(F)(F)F)c1 -17.7%
Cc1nc2ncnn2c(C)c1CCC(=O)N1CCN(c2ccccc2)CC1 -3.92%
COc1ccc(OC)c(NC(=O)c2cc3cc(C)ccc3n2C)c1 -4.13%
CCc1ccccc1NC(=O)Cn1c(=O)n(-c2ccc(C)cc2)c(=O)c2c1c1cc(C)ccc1n2C -13.8%
Cc1ccccc1CSc1nc2cc(C(=O)NC3CCCC3)ccc2c(=O)n1Cc1ccccc1 1.87%
CCN(Cc1ccccc1)C(=O)Cn1cc(S(=O)(=O)Cc2cccc(Cl)c2)c2ccccc21 -9.84%
O=C(CCCn1c(=O)c2cccn2c2ccc(F)cc21)NCc1ccc(Cl)cc1 -2.24%
COC(=O)CC1Oc2ccccc2-n2cc(-c3ccccc3)nc21 (centres undefined) 5.29%
Cc1ccc(-n2nc(CO)c(C(=O)NC(C)CCCc3ccccc3)n2)cc1C (centres undefined) -0.204%
